Assay results from patent US11738063B2, “Pharmaceutical composition for preventing or treating neurodegenerative diseases which includes flower extract of Daphne genkwa or fractions thereof as active ingredient” (KOREA RESEARCH INSTITUTE OF BIOSCIENCE AND BIOTECHNOLOGY, priority 2016, dated 2023).

System: CHL (Chinese Hamster Lung)/IU cells
Assay: Chromosome aberration assay
Conditions: 20 μg/mL, S9+, 6-18 hr, positive control

c1ccc2c(c1)cc1ccc3cccc4ccc2c1c34 [B[a]P, Benzo[a]pyrene]
RPD: 41.3% and 57.4%

“And” between values parts separate entries of the source, which are not always exact repeats. Equal entries are not always repeated.
